Results published in the supplement of paper PMC3334620.
Over roughly 33,000 sequences, “E-score (-0.5 to 0.5)” has its median near -0.053; the highest 2% begin near 0.37. Some of the results follow.

biological target: Hap1 (UniProt P0CE41); experiment: PBM E-score (8-mer binding enrichment) (E-score (-0.5 to 0.5)); higher = stronger / more preferred TF binding; most listed sequences are background and not binding sites; conditions: protein concentration: 200 nM; construct: GST-DNA-binding domain
Chain of UniProt P0CE41 (P0CE41 whole entry, the tested form may be a part): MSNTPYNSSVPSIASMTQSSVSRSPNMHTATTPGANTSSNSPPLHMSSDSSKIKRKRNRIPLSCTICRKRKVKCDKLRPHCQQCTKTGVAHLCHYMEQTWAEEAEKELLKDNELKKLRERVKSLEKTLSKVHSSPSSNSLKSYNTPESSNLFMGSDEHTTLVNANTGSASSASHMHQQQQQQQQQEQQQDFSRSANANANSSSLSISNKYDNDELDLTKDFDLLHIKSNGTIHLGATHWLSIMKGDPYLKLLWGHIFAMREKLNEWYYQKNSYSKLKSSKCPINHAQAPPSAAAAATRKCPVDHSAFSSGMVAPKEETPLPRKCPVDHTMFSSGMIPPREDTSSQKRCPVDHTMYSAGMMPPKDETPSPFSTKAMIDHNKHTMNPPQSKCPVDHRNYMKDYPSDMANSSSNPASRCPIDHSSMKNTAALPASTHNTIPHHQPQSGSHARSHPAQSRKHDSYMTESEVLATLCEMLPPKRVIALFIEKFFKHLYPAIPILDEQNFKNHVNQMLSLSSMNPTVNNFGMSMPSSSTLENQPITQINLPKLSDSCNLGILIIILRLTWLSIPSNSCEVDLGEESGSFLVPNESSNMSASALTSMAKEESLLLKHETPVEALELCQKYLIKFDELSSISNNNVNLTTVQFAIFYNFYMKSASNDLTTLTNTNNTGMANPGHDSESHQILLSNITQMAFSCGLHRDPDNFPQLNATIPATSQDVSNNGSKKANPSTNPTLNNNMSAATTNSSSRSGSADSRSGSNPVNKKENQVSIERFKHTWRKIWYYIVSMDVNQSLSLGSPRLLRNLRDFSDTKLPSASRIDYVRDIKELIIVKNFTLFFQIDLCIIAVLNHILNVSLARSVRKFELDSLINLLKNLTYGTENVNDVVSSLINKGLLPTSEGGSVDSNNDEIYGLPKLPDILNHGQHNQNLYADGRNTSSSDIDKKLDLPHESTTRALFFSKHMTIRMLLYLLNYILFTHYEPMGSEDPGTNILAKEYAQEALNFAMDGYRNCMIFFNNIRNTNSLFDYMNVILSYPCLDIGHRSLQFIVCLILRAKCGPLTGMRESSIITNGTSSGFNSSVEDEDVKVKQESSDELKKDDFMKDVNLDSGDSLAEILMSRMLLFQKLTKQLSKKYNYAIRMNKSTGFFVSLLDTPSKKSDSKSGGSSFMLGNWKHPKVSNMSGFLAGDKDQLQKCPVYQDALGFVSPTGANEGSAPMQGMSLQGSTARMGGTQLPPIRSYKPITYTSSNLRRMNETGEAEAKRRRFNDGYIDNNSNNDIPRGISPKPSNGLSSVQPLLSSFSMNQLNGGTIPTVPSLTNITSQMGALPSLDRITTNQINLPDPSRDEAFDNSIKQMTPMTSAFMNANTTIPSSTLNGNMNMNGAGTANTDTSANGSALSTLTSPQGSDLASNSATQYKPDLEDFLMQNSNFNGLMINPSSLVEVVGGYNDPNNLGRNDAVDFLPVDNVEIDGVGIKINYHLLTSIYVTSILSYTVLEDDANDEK
In short: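 Yeast transcription factors, full-length or as DNA-binding domains, were expressed with a GST tag using PURExpress in vitro transcription/translation. At about 100-200 nM they were applied to universal all-10-mer Agilent arrays, double-stranded by primer extension on fresh or once-stripped slides. Fluorescent anti-GST detected bound protein, and masliner normalised the scans. E-scores for ungapped eight-base words, pooled with reverse complements, came from the Universal PBM Analysis Suite.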

Sequence | PBM E-score
AGCAGTGC | -0.272
TAGGCGGA | 0.216
TTGCGCAA | -0.00107
CAACCTTG | -0.111
CGGTGGGC | 0.0993
AATTTACT | -0.135
TAGGGTCA | -0.082
ACATCGAC | -0.145
AATTTGCC | -0.0245
CTTCGACC | 0.148
ATACCAAT | 0.0198
CAATGCCG | 0.315
GATTAGCC | 0.0595
TATTCTCA | -0.165
AAATACGG | 0.0862
AGGCTCTC | -0.0785
CCCTAGTC | -0.331
CCACCGTA | -0.00821
GAAGGCTC | -0.0392
CTGACGCA | -0.221
CACATGAA | -0.194
ATAAGAAC | 0.031
CTAAGAAC | 0.155
TCTTCGAA | -0.201
AACTTATA | 0.0458

Sequence | PBM E-score
ATCAGCGG | 0.271
CAGCACGG | 0.0657
ACGAGTAG | -0.0829
AACGGTGT | 0.0274
GCAGTGAA | -0.206
CAGTACTC | -0.168
CACACATA | -0.0995
CTGTGCAA | -0.308
CCGTGACC | 0.226
CCTGAGCG | -0.161
TACGTCAA | -0.214
ATTCCTTA | -0.206
ACCATTAA | 0.139
AACCCAGA | -0.176
AACTAATG | -0.0714
GCACCGGC | 0.291
TACAAGTA | -0.259
CGTGCCGA | 0.164
ATCCTACG | -0.0295
AGGGCGTA | -0.137
ATCTACAT | -0.134
GGGTACGA | -0.0424
ATATCCAG | 0.0668
CCCACTTC | 0.0403
ATAGGGAG | -0.147

Sequence | PBM E-score
ATAATCCA | -0.0585
CCGGTCGA | 0.333
AAACATAA | -0.242
TAAACATA | 0.03
ATTTGTTG | -0.0781
ACTAGTCT | -0.29
AATGGAGA | 0.0809
AGGCAAAG | -0.246
CGGTAGGA | 0.115
GACCCTGC | 0.0209
AGGGATAA | -0.282
ATTCACGA | -0.0824
GCCGCCGA | 0.26
ATTAAGTA | -0.00434
CGTTAATA | 0.244
GGGACAAC | -0.166
CGGTTAGC | 0.13
TATGACAA | -0.185
CAATCAGG | -0.151
GCCGGCCC | 0.372
GACTGTCC | 0.0286
CAAGCTTA | 0.0563
GGGAAAAC | 0.12
ACCATTCG | -0.0753
CGTAAGTC | 0.129

Sequence | PBM E-score
ATTGCAAA | -0.0295
AATCTGAG | -0.0511
CTTTAAAA | 0.0441
GTGCCCAA | -0.223
GAGTATAC | -0.0621
CAATACGA | -0.00494
ACGGTCTG | -0.122
CAGCTACA | -0.156
GCCTTGCC | -0.0796
GACTAAGC | 0.0686
TCTGTTAA | -0.142
AAACCCCT | -0.0943
ATTAGAAC | 0.0628
ACATGAGA | -0.175
AGCACGCA | -0.287
GGTAAGCA | -0.102
ACGGGTTG | -0.145
ATGGGCGC | -0.137
CTACGCCA | -0.263
CCGAAGTC | 0.318
GCACACCC | -0.223
ACTACGCT | -0.102
TGCATCCA | -0.202
TCAGGGCA | -0.199
CTGTTATA | 0.0864

Sequence | PBM E-score
ACGACGAG | -0.279
AAGCTATT | -0.126
GATTGTAA | -0.00165
AAACGGAG | 0.258
CAACTTAG | -0.033
GATGTTCA | -0.00017
GACGGTCC | 0.182
ACAAGTTG | -0.028
AACAAACA | -0.0847
AAATTTAG | 0.044
GCCAACGA | -0.115
CCGGAGCG | 0.359
CAACGGGC | 0.153
CCTGCGTC | -0.00919
CAGAGCTC | -0.0017
GCACCAAC | 0.0137
GCGCGACA | 0.143
GAGTTACC | 0.0616
ACGGTTCA | 0.0385
ACGGGCTC | 0.0484
AGGCACAA | -0.0993
AGAGATCT | -0.171
GAACCGTC | 0.0767
GGGAATGA | 0.0402
GAGGTGCC | 0.0217

Sequence | PBM E-score
GCCACTTA | -0.117
TACGACTA | -0.109
ATCTATTG | -0.0635
AGACGCGG | 0.0872
CCCCACTA | -0.0251
CAGCATAC | -0.247
CAACCTCA | -0.276
CGGAAGAA | 0.305
CTACTGCC | -0.00047
GCCCTTGA | -0.242
CCCGCAAC | 0.277
TAGATGAA | -0.196
ACGCTAGT | -0.105
CGGTGGCC | 0.234
AAAAACTG | -0.2
CGGCAGGA | 0.175
GAGGCTAA | -0.0306
AAGCCTCT | -0.281
AAGGTGAG | -0.173
AAGCTGCA | -0.039
CAAATTGA | -0.173
TACGAACA | -0.138
TTGTTAAA | 0.0915
CATAATCC | -0.0185
AGAACAGG | -0.156

Sequence | PBM E-score
GCGCAGTA | 0.0654
ACTACGTC | -0.0459
GATCGTCC | 0.164
CTTGCCCC | 0.0369
ATATCTTC | 0.152
GAATGGGA | -0.138
CACGGTTC | -0.0838
CCGAATTA | 0.282
AAGCACCC | -0.0703
ATCGAACG | -0.121
AAATATGA | -0.252
ATGACGCC | -0.0669
ACCTACCT | 0.0276
ACATCTGC | -0.281
GGTGTCGA | -0.193
CTGAGGAC | -0.0707
ACATAGTA | -0.133
AACTTAAT | 0.0202
AACATATG | -0.123
CCAATCAA | 0.00077
AGGGTAAA | -0.156
CTATGCGA | -0.185
CCTTGAGA | -0.0628
ACCAGATC | -0.0237
CATGACCA | -0.294

Sequence | PBM E-score
ATAATCAT | -0.00531
CCCGTGCG | 0.154
GGCTAGCA | -0.00251
ACAACGCG | 0.0255
GAGTGTAA | -0.261
AGGGAACC | -0.0577
CGATCCTA | -0.0276
GAGCTCGC | 0.163
AAGGAAAA | -0.231
CCAGTATC | 0.074
AAGGCGGC | -0.0382
AGGGCAAT | 0.022
CCGTTATA | 0.311
ACACAGAG | -0.196
AGGACAAT | -0.104
ATGCATTA | -0.058
GATAGCAA | -0.111
ACTGAGCC | -0.0979
AGAGGAAA | -0.0424
CTGTAGAA | -0.0892
GAGTCAGA | -0.0372
AACTCCGA | 0.474
ACTAACAG | -0.0789
CCAATTAA | -0.169
AAAAACGG | 0.105

Sequence | PBM E-score
AGTGTTAA | -0.0373
AAAAGGCC | 0.0671
AGAGAGAA | -0.177
CTGATGGA | -0.236
CAATAAAA | -0.174
CCGGCTGC | 0.23
AATCTCTG | -0.274
AAAGCTTT | 0.21
ACAGCCCG | 0.144
AAAACAGT | 0.0339
ATAGTCTC | 0.0143
ACTCAGAC | -0.276
AGTACGGA | 0.258
AGTCTGAA | -0.243
ACGCCTTG | -0.0738
AGCTAAGG | -0.203
ACCACCAC | -4e-05
AGAAATTC | -0.0807
AAATCGCA | -0.0497
CAGTGCCG | 0.229
GCAGATTA | 0.0918
AATTATTC | -0.0028
CGGGGTAG | 0.127
CAAGGTGG | -0.0167
CACAACGA | -0.0452

Sequence | PBM E-score
CGCTGCCC | 0.0735
CCTTGTGA | -0.064
CGGTTTCA | 0.263
ACAATCCG | 0.219
GGTAAAAC | 0.0436
ATGGAGGA | -0.136
AGGGCGCA | -0.107
CTGAGCGA | -0.117
GAGGCCTA | -0.152
CACGTATC | -0.0777
CAGGGTCA | -0.178
CAGAGAGA | -0.271
ATAACTGG | -0.00522
GAAGGAGA | -0.221
AAATCCAA | -0.0526
GGAGAACA | 0.0816
CAAACCTG | -0.189
CTAGCAAG | -0.275
ATCAAAGA | -0.222
GATTCGGC | 0.341
GCCTATCC | -0.0494
CCCTAGAG | -0.13
TAACGACA | -0.0973
GTAGCTCA | -0.14
AGGATGGA | -0.0197

Sequence | PBM E-score
AGTACCCC | 0.0758
ATTGCAAT | 0.0977
ATCGACAA | 0.0897
GGATAACA | -0.00353
ACGTTCAA | -0.152
AGCATGTC | -0.0508
ATATTAGG | -0.0872
GACTAGAA | -0.0358
ATCGGCGG | 0.408
CTTGGGTA | -0.108
CGGACCCC | 0.233
ACATCAGC | 0.0244
TATAGGAA | -0.189
GCCACTCA | -0.0199
GACTCACC | -0.109
CTTCGAAC | -0.0233
GGACTGCA | -0.296
GTATCAGA | -0.12
CAGTTGTC | -0.0876
AGCCTGCG | -0.0999
GAGTGGTA | -0.111
GTCCCCAC | -0.206
ATGTCAAT | -0.0437
AATCGAAC | -0.0758
ATTTGGGA | -0.117

Sequence | PBM E-score
ACGTGCCT | -0.0713
GTTACAAC | 0.0652
ATCTTCGG | 0.322
AAACTAAT | 0.117
ATCCCATC | -0.227
CCTGATCG | -0.074
TCCTGCCA | -0.12
GAGCTAAA | 0.0627
ATTTGTGA | -0.191
AAATTGAT | 0.06
ATGGAAAA | 0.0624
ACCTCCAA | -0.244
ACGGGTCA | -0.107
GACCAAGC | -0.0246
AATAACAC | 0.135
ACATCAAC | 0.0757
AAACCCAG | -0.208
CCACCAAG | -0.066
GGACAAAC | 0.00614
AACATCCA | -0.154
ATCAATGC | 0.0363
ATAGCCAG | -0.293
GAAAAGGA | -0.0758
CAACATCC | -0.0049
CGACAAGC | 0.0766

Sequence | PBM E-score
CGCTGTGC | 0.142
CCGGGAGC | 0.278
CCAAAGTA | -0.0608
AGGCTGAG | -0.0777
CAAACCAC | -0.109
ACATCAAT | -0.14
GAAGTTAA | -0.126
AAATACAT | -0.216
ACAACTGC | -0.232
AGGGACCT | -0.127
ATGATCTG | -0.105
TATGGCGA | -0.146
CCCGATGA | 0.285
ATAGAGAA | -0.183
CAGTCAAA | -0.179
ACAGGCAC | -0.111
CGTGACTA | -0.0182
CTAATCGA | -0.014
AATACCGA | 0.296
ACTCTGAA | -0.0321
AGATAAGA | 0.062
AGCGCAGC | -0.0998
CTTACAGA | -0.141
CAATGCAG | -0.128
AGGAGCAT | -0.14

Sequence | PBM E-score
AGTTAACC | 0.184
CGAGACGC | 0.155
AATACATT | -0.126
CGCATAGA | -0.00989
AAACGCTT | -0.151
TCTTAACA | -0.321
CACTTGAA | -0.291
TCGGGTCA | 0.356
CGCTATAA | 0.0954
ATCCGCCG | 0.375
AGTTGTTA | -0.108
AAGCGTGT | -0.12
AGCCAGTG | -0.128
CCCTGCGG | 0.133
AACACTCT | -0.0636
ACAATGTC | -0.108
AAAAGTGG | 0.0261
CCAAATGC | -0.0569
AGTACTAT | -0.151
